This is one part of the list. Cut-off read from the data, not from the text of the source: active = 3.2 or more and inactive = the rest. Most of these values are background signal.
Each binder was assayed against SHP2 C-SH2 domain E139D (assay: enrichment score (SH2-bound / input frequency) (ratio); bacterial display of known human phosphotyrosine sites (pTyr-Var adds point mutants) read by sequencing; higher = stronger binding; tyrosines were phosphorylated by kinases first). Conditions: peptide library: pTyr-Var.
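Note: displayed peptides selected on beads carrying the immobilized SH2 domain, with library peptides lacking any tyrosine serving as negative controls.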

Enrichment score, inactive:
YKRAVYCIIGR [NUP93_Y391] 0.405
FKRAVYCIIGR [NUP93_Y391_YF] 0.297
IINENYDYLKG [NUP98_Y1664] 0.844
IINENYDYLKV [NUP98_Y1664_G1669V] 1.02
IINENYDFLKV [NUP98_Y1664_G1669V_YF] 0.927
IINENYDFLKG [NUP98_Y1664_YF] 0.906
HEEDNYIELIP [NWD2_Y566] 0.677
HEEDNYIEMIP [NWD2_Y566_L569M] 0.802
ELELLYPDRNS [NYX_Y284_L285P] 0.837

The binders below were run against SHP2 C-SH2 domain wild-type in the same assay as above. Conditions: peptide library: pTyr-Var.

Enrichment score, inactive:
YKRAVYCIIGR [NUP93_Y391] 0.289
FKRAVYCIIGR [NUP93_Y391_YF] 0.329
IINENYDYLKG [NUP98_Y1664] 0.649
IINENYDYLKV [NUP98_Y1664_G1669V] 0.839
IINENYDFLKV [NUP98_Y1664_G1669V_YF] 0.846
IINENYDFLKG [NUP98_Y1664_YF] 0.817
HEEDNYIELIP [NWD2_Y566] 0.911
HEEDNYIEMIP [NWD2_Y566_L569M] 1.12
ELELLYPDRNS [NYX_Y284_L285P] 0.727

These binders were tested against SHP2 N-SH2 domain L43F in the same assay as above. Conditions: peptide library: pTyr-Var.

Enrichment score, inactive:
YKRAVYCIIGR [NUP93_Y391] 0.233
FKRAVYCIIGR [NUP93_Y391_YF] 0.383
IINENYDYLKG [NUP98_Y1664] 0.76
IINENYDYLKV [NUP98_Y1664_G1669V] 0.925
IINENYDFLKV [NUP98_Y1664_G1669V_YF] 0.823
IINENYDFLKG [NUP98_Y1664_YF] 1.04
HEEDNYIELIP [NWD2_Y566] 1.11
HEEDNYIEMIP [NWD2_Y566_L569M] 1.05
ELELLYPDRNS [NYX_Y284_L285P] 0.851

These binders were tested against SHP2 N-SH2 domain T42A in the same assay as above. Conditions: peptide library: pTyr-Var.

Enrichment score, inactive:
YKRAVYCIIGR [NUP93_Y391] 0.3
FKRAVYCIIGR [NUP93_Y391_YF] 0.306
IINENYDYLKG [NUP98_Y1664] 0.772
IINENYDYLKV [NUP98_Y1664_G1669V] 0.843
IINENYDFLKV [NUP98_Y1664_G1669V_YF] 0.997
IINENYDFLKG [NUP98_Y1664_YF] 0.866
HEEDNYIELIP [NWD2_Y566] 0.774
HEEDNYIEMIP [NWD2_Y566_L569M] 0.681
ELELLYPDRNS [NYX_Y284_L285P] 0.592

Each binder was assayed against SHP2 N-SH2 domain T52S in the same assay as above. Conditions: peptide library: pTyr-Var.

Enrichment score, inactive:
YKRAVYCIIGR [NUP93_Y391] 0.259
FKRAVYCIIGR [NUP93_Y391_YF] 0.384
IINENYDYLKG [NUP98_Y1664] 0.874
IINENYDYLKV [NUP98_Y1664_G1669V] 0.901
IINENYDFLKV [NUP98_Y1664_G1669V_YF] 0.897
IINENYDFLKG [NUP98_Y1664_YF] 0.753
HEEDNYIELIP [NWD2_Y566] 0.839
HEEDNYIEMIP [NWD2_Y566_L569M] 1.31
ELELLYPDRNS [NYX_Y284_L285P] 0.892

The binders below were run against SHP2 N-SH2 domain wild-type in the same assay as above. Conditions: peptide library: pTyr-Var.

Enrichment score, inactive:
YKRAVYCIIGR [NUP93_Y391] 0.31
FKRAVYCIIGR [NUP93_Y391_YF] 0.282
IINENYDYLKG [NUP98_Y1664] 0.9
IINENYDYLKV [NUP98_Y1664_G1669V] 0.829
IINENYDFLKV [NUP98_Y1664_G1669V_YF] 0.956
IINENYDFLKG [NUP98_Y1664_YF] 1.19
HEEDNYIELIP [NWD2_Y566] 1.45
HEEDNYIEMIP [NWD2_Y566_L569M] 1.65
ELELLYPDRNS [NYX_Y284_L285P] 0.925

From the supplement of paper PMC10369915
